Holding throughout (assay): co-IP; V5H6-tagged FRQ (wild type or mutant) pulled down with V5 agarose from Neurospora lysate (cultures in the light, 25 °C); 50 mM Hepes pH 7.4, 137 mM NaCl, 10% glycerol, 0.4% NP-40; 4 °C, 2 h; Western blot with FRQ, FRH, WC-1 and WC-2 antibodies
Experiment [1] deals with T1, FRQ 311–628, V5H6-tagged (Neurospora crassa) (UniProt P19970).
T1 sequence: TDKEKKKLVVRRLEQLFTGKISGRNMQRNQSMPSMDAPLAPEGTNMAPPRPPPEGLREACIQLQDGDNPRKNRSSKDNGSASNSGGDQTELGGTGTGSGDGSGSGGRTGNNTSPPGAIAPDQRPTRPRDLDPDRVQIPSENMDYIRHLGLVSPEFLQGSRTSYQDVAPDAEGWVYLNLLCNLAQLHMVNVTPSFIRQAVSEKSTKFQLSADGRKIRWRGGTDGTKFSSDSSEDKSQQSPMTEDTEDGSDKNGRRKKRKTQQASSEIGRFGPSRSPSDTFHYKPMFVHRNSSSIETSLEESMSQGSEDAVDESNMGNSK

Chains of the proteins cited; added tags and fusions are not shown.
UniProt Q01371: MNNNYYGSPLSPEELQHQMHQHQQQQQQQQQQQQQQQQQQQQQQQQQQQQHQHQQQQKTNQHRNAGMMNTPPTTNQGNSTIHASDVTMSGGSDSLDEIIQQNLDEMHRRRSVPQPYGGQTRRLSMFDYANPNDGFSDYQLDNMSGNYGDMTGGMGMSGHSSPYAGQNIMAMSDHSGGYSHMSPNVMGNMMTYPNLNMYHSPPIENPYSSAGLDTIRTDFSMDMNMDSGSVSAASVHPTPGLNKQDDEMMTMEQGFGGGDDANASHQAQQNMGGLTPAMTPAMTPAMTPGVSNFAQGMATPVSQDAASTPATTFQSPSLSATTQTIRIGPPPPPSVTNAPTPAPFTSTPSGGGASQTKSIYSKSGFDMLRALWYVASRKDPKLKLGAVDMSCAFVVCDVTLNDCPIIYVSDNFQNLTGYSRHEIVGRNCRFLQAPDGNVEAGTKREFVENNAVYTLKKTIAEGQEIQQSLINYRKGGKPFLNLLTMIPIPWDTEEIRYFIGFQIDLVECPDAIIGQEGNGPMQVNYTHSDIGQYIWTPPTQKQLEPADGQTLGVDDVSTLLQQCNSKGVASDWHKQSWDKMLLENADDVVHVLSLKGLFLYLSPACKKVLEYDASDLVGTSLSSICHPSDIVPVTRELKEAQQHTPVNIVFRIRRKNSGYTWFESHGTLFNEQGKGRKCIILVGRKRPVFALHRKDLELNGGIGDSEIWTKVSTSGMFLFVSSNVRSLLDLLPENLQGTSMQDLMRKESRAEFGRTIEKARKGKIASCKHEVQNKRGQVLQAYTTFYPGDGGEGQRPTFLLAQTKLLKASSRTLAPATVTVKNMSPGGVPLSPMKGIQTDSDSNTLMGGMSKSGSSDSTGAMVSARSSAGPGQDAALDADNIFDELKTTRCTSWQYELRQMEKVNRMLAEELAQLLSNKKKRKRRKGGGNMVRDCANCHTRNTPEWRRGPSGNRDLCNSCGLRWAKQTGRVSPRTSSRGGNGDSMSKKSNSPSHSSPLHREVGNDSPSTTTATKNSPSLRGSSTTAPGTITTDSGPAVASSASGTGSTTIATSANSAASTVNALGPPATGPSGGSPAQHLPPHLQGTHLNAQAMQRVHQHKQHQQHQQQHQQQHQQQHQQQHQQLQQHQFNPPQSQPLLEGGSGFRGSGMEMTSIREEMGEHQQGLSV

Experiment [2] concerns the target T2, FRQ E801A, D802A, E805A, E809A, V5H6-tagged (Neurospora crassa) (UniProt P19970).
T2 sequence: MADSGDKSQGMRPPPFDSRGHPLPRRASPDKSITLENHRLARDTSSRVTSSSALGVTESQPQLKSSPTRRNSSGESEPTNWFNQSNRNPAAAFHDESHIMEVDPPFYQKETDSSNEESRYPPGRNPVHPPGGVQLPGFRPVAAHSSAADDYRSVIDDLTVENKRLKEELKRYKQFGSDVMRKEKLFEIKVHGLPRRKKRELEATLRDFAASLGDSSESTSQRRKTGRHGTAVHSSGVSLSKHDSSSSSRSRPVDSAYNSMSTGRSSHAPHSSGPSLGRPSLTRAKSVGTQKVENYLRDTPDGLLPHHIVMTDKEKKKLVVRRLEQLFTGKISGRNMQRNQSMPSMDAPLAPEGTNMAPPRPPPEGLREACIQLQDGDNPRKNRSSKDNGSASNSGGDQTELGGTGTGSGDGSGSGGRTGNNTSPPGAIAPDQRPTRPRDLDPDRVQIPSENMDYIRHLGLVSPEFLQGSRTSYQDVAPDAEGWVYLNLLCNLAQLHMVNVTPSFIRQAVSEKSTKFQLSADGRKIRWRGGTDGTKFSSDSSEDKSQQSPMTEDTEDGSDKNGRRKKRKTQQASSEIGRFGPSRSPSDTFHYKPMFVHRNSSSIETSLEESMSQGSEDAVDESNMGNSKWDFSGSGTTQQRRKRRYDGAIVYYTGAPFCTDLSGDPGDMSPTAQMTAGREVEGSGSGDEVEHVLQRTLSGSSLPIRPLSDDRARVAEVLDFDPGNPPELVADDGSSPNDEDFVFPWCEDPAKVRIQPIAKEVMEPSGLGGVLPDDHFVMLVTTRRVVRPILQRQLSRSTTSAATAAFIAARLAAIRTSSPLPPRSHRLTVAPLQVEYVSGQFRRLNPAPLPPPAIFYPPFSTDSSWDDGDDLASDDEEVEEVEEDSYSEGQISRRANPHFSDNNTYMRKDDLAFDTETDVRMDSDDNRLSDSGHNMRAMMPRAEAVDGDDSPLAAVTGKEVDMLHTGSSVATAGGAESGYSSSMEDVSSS

Experiment [3] deals with T3, FRQ Δ200–249, V5H6-tagged (Neurospora crassa) (UniProt P19970).
T3 sequence: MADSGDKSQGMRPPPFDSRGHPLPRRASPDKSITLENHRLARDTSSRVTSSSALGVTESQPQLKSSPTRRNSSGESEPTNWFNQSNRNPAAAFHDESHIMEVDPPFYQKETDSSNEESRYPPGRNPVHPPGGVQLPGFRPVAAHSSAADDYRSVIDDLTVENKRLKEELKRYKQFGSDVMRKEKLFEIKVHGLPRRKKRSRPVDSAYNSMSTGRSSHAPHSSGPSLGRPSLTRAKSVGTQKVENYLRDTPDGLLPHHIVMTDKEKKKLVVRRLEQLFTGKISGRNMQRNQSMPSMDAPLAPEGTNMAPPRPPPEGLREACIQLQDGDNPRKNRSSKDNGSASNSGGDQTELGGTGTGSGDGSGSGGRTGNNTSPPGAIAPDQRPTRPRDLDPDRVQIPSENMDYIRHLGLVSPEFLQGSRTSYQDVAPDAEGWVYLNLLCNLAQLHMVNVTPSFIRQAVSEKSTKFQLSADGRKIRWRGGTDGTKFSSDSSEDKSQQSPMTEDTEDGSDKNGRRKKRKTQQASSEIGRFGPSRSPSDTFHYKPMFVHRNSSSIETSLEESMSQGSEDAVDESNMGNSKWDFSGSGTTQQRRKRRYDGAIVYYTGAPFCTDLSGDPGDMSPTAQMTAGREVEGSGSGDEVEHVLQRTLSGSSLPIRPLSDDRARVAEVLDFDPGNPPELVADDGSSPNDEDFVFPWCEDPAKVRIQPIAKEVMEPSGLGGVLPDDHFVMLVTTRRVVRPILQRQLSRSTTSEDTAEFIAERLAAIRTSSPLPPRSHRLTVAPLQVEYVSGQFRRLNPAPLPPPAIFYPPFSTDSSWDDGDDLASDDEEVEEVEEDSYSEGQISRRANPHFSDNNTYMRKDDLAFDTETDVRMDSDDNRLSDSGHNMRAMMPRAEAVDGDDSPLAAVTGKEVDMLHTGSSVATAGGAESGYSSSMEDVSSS

No constants are given. Whether binding was seen depends on the method and setting. In cells and extracts the contact can be indirect. Some results given as binding are weak or reduced against the parent protein; the word gives no strength. Tags and fused reporters may be left off the sequences shown.

Consider “White Collar-1 (WC-1) (from UniProt Q01371 1-1167)”, for which the results for the binding entry in experiment [1], in experiment [2] and in experiment [3] were “no binding”, “binds” and “no binding”, respectively.

The values above are taken from PMC10320511.
